# Assay results reported in the supplement of paper PMC12217912.
# Some of the results follow. Sequences were assembled here from the parent chain. Inactive controls read about 0.05.
# B1: TEV protease; numbered along this chain (parent)
# chain: MGESLFKGPRDYNPISSSICHLTNESDGHTTSLYGIGFGPFIITNKHLFRRNNGTLVVQSLHGVFKVKDTTTLQQHLVDGRDMIIIRMPKDFPPFPQKLKFREPQREERICLVTTNFQTKSMSSMVSDTSCTFPSGDGIFWKHWIQTKDGQCGSPLVSTRDGFIVGIHSASNFTNTNNYFTSVPKNFMELLTNQEAQQWVSGWRLNADSVLWGGHKVFMVKPEEPFQPVKEATQL
# Variants of: B1
# Assay: raw area under fraction-flipped curve 0-4 h after induction (AUC4h, not background-subtracted), DNA-recorder readout of cleavage of the substrate (dimensionless); higher = more cleavage of the substrate by the protease variant
# Conditions: temperature: 34 °C; time window: 0-4 h after rhamnose induction
# 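Also: Bxb1 expression induced with 0.2% (w/v) L-rhamnose at OD600 near 0.5, cultures sampled hourly, flipped fraction per protease–substrate barcode pair counted by paired-end Illumina sequencing.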
variant,measurement,value
MGESLFKGPRDYNPISSSICHLTNESDGHTTSLYGIGFGPFIITNKHLFRRNNGTLVVQSLHGVFKVKDTTTLQQHLVDGRDMIIIRMPKDFPPFPQKLKFREPQREERICLVTTNFQTKSMSSMVSDTSCTFPSGDGIFWKHWIQTKDGQCGSPLVSTRDGFIVGIHSASNFTNTNNYFTWVPKNFMELLTNQEAQQWVSGWRLNADSVLWGGHKVFMVKPEEPFQPVKEATQL [S182W],area with substrate ENLYFQA,0.0474
same,area with substrate ENLYFQC,0.0331
same,area with substrate ENLYFQD,0.0544
same,area with substrate ENLYFQF,0.0624
same,area with substrate ENLYFQK,0.0281
same,area with substrate ENLYFQL,0.0436
same,area with substrate ENLYFQN,0.0473
same,area with substrate ENLYFQP,0.0612
same,area with substrate ENLYFQR,0.0524
same,area with substrate ENLYFQS,0.0548
same,area with substrate ENLYFQT,0.0633
same,area with substrate ENLYFQW,0.0582
same,area with substrate ENLYFQY,0.06
MGESLFKGPRDYNPISSSICHLTNESDGHTTSLYGIGFGPFIITNKHLFRRNNGTLVVQSLHGVFKVKDTTTLQQHLVDGRDMIIIRMPKDFPPFPQKLKFREPQREERICLVTTNFQTKSMSSMVSDPSCTFPSGDGIFWKHWIQTKDGQCGSPLVSTRDGFIVGIHSASNFTNTNNYFTSVPKNFMELLTNQEAQQWVSGWRLNADSVLWGGHKVFMVKPEEPFQPVKEATQL [T129P],area with substrate ENLYFQA,0.0792
same,area with substrate ENLYFQC,0.109
same,area with substrate ENLYFQE,0.0471
same,area with substrate ENLYFQG,0.0958
same,area with substrate ENLYFQI,0.0504
same,area with substrate ENLYFQK,0.0785
same,area with substrate ENLYFQL,0.0468
same,area with substrate ENLYFQM,0.0903
same,area with substrate ENLYFQN,0.0659
same,area with substrate ENLYFQR,0.0605
same,area with substrate ENLYFQS,0.0916
same,area with substrate ENLYFQT,0.071
same,area with substrate ENLYFQV,0.0627
same,area with substrate ENLYFQW,0.0509
MGESLFKGPRDYNPISSSICHLTNESDGHTTSLYGIGFGPFIITNKHLFRRNNGTLVVQSLHGVFKVKDTTTLQQHLVDGRDMIIIRMPKDFPPFPQKLKFREPQREERICLVTTNFQTKSMSSMVSDTSCTFPSGDGIFWKHWIQTKDGQCGSPLVSTRDGFIVGIHSASNFTNTNNYFTSVPKNFMELLTNQEAQQWVSGWRLNADSVLWGGHKVFMVKPEERFQPVKEATQL [P225R],area with substrate ENLYFQA,0.0932
same,area with substrate ENLYFQC,0.115
same,area with substrate ENLYFQD,0.0589
same,area with substrate ENLYFQF,0.0626
same,area with substrate ENLYFQG,0.106
same,area with substrate ENLYFQH,0.0695
same,area with substrate ENLYFQI,0.0576
same,area with substrate ENLYFQK,0.07
same,area with substrate ENLYFQL,0.0648
same,area with substrate ENLYFQM,0.075
same,area with substrate ENLYFQN,0.0673
same,area with substrate ENLYFQP,0.0534
same,area with substrate ENLYFQR,0.0587
same,area with substrate ENLYFQS,0.0947
same,area with substrate ENLYFQT,0.0541
same,area with substrate ENLYFQV,0.0578
same,area with substrate ENLYFQW,0.0695
same,area with substrate ENLYFQY,0.0737
MGESLFKGPRDYNPISSSICHLTNESDGHTTSFYGIGFGPFIITNKHLFRRNNGTLVVQSLHGVFKVKDTTTLQQHLVDGRDMIIIRMPKDFPPFPQKLKFREPQREERICLVTTNFQTKSMSSMVSDTSCTFPSGDGIFWKHWIQTKDGQCGSPLVSTRDGFIVGIHSASNFTNTNNYFTSVPKNFMELLTNQEAQQWVSGWRLNADSVLWGGHKVFMVKPEEPFQPVKEATQL [L33F],area with substrate ENLYFQA,0.0612
same,area with substrate ENLYFQC,0.053
same,area with substrate ENLYFQD,0.0613
same,area with substrate ENLYFQF,0.0483
same,area with substrate ENLYFQG,0.0643
same,area with substrate ENLYFQH,0.0549
same,area with substrate ENLYFQI,0.0656
same,area with substrate ENLYFQK,0.0633
same,area with substrate ENLYFQM,0.0597
same,area with substrate ENLYFQN,0.0482
same,area with substrate ENLYFQP,0.0576
same,area with substrate ENLYFQR,0.0637
same,area with substrate ENLYFQS,0.0595
same,area with substrate ENLYFQT,0.072
same,area with substrate ENLYFQV,0.0675
same,area with substrate ENLYFQW,0.0644
MGESLFKGPRDYNPISSSICHLTNESDGHTTSLYGIGFGPFIITNKHLFRRNNGTLVVQSLHGVFKVKDTTTLQQHLVDGRDMIIIRMPKDFPPFPQKLKFREPQREERICLVTTNFQTKSMSSMVSDTSCTFPSGDGIFWKHWIQTKDGSCGSPLVSTRDGFIVGIHSASNFTNTNNYFTSVPKNFMELLTNQEAQQWVSGWRLNADSVLWGGHKVFMVKPEEPFQPVKEATQL [Q151S],area with substrate ENLYFQA,0.0955
same,area with substrate ENLYFQL,0.0453
same,area with substrate ENLYFQM,0.107
same,area with substrate ENLYFQN,0.109
same,area with substrate ENLYFQP,0.0613
same,area with substrate ENLYFQQ,0.0782
same,area with substrate ENLYFQR,0.0567
same,area with substrate ENLYFQS,0.104
same,area with substrate ENLYFQT,0.0699
same,area with substrate ENLYFQW,0.0563
same,area with substrate ENLYFQY,0.0859
MGESLFKGPRDYNPISSSICHLTNESDGHTTSLYGIGFGPFIITNKHLFRRNNGTLVVQSLHNVFKVKDTTTLQQHLVDGRDMIIIRMPKDFPPFPQKLKFREPQREERICLVTTNFQTKSMSSMVSDTSCTFPSGDGIFWKHWIQTKDGQCGSPLVSTRDGFIVGIHSASNFTNTNNYFTSVPKNFMELLTNQEAQQWVSGWRLNADSVLWGGHKVFMVKPEEPFQPVKEATQL [G63N],area with substrate ENLYFQA,0.0587
same,area with substrate ENLYFQC,0.0984
same,area with substrate ENLYFQD,0.0584
same,area with substrate ENLYFQG,0.0853
same,area with substrate ENLYFQH,0.0666
same,area with substrate ENLYFQI,0.0226
same,area with substrate ENLYFQM,0.0812
same,area with substrate ENLYFQS,0.0841
same,area with substrate ENLYFQT,0.0607
same,area with substrate ENLYFQV,0.082
MGESLFKGPRKYNPISSSICHLTNESDGHTTSLYGIGFGPFIITNKHLFRRNNGTLVVQSLHGVFKVKDTTTLQQHLVDGRDMIIIRMPKDFPPFPQKLKFREPQREERICLVTTNFQTKSMSSMVSDTSCTFPSGDGIFWKHWIQTKDGQCGSPLVSTRDGFIVGIHSASNFTNTNNYFTSVPKNFMELLTNQEAQQWVSGWRLNADSVLWGGHKVFMVKPEEPFQPVKEATQL [D11K],area with substrate ENLYFQA,0.0738
same,area with substrate ENLYFQC,0.115
same,area with substrate ENLYFQD,0.0629
same,area with substrate ENLYFQG,0.087
same,area with substrate ENLYFQK,0.0749
same,area with substrate ENLYFQL,0.0598
same,area with substrate ENLYFQM,0.0635
same,area with substrate ENLYFQN,0.0782
same,area with substrate ENLYFQQ,0.0808
same,area with substrate ENLYFQR,0.046
same,area with substrate ENLYFQS,0.0945
same,area with substrate ENLYFQT,0.0636
same,area with substrate ENLYFQV,0.0662
same,area with substrate ENLYFQW,0.0664
same,area with substrate ENLYFQY,0.0751
MGESLFKGPRDYNPISSSICHLTNESDGHTTSLYGIGFGPFIITNKHLFRRNNGTLVVQSLHGVFKVKDTTTLQQHLVDGRDMIIIRMPKDFPPFPQKLKFREPQREERICLVTTNFQTKSMSSMVSDTSCTFPSGDGIFWKHWIQTKDGQCGSPLVSTRDHFIVGIHSASNFTNTNNYFTSVPKNFMELLTNQEAQQWVSGWRLNADSVLWGGHKVFMVKPEEPFQPVKEATQL [G162H],area with substrate ENLYFQA,0.0986
same,area with substrate ENLYFQD,0.0671
same,area with substrate ENLYFQF,0.0777
same,area with substrate ENLYFQG,0.0876
same,area with substrate ENLYFQH,0.0758
same,area with substrate ENLYFQI,0.0541
same,area with substrate ENLYFQK,0.0433
same,area with substrate ENLYFQL,0.0583
same,area with substrate ENLYFQP,0.057
same,area with substrate ENLYFQQ,0.0784
same,area with substrate ENLYFQR,0.057
same,area with substrate ENLYFQS,0.0917
same,area with substrate ENLYFQV,0.0461
same,area with substrate ENLYFQY,0.093
MGESLFKGPRDYNPISSSICHLTNESVGHTTSLYGIGFGPFIITNKHLFRRNNGTLVVQSLHGVFKVKDTTTLQQHLVDGRDMIIIRMPKDFPPFPQKLKFREPQREERICLVTTNFQTKSMSSMVSDTSCTFPSGDGIFWKHWIQTKDGQCGSPLVSTRDGFIVGIHSASNFTNTNNYFTSVPKNFMELLTNQEAQQWVSGWRLNADSVLWGGHKVFMVKPEEPFQPVKEATQL [D27V],area with substrate ENLYFQA,0.0953
same,area with substrate ENLYFQC,0.105
same,area with substrate ENLYFQD,0.0667
same,area with substrate ENLYFQE,0.0663
same,area with substrate ENLYFQG,0.045
same,area with substrate ENLYFQH,0.0631
same,area with substrate ENLYFQI,0.066
same,area with substrate ENLYFQK,0.0544
same,area with substrate ENLYFQL,0.0745
same,area with substrate ENLYFQM,0.0723
same,area with substrate ENLYFQN,0.0674
same,area with substrate ENLYFQP,0.0476
same,area with substrate ENLYFQR,0.0419
same,area with substrate ENLYFQS,0.0871
same,area with substrate ENLYFQT,0.0683
